# Source: the antibiotic and cytotoxicity screens of Wong et al. (2023)
# The list shows a part of the results.
# Assays:
# HSkMC = human skeletal muscle cells; test: cytotoxicity call (relative viability < 0.9); details: 10 µM
# HepG2 = test: cytotoxicity call (relative viability < 0.9); details: 10 µM
# S. aureus RN4220 = test: growth inhibition call (relative growth <= 0.2); details: 50 µM
Structure (SMILES),cytotoxicity call (HSkMC),cytotoxicity call (HepG2),growth inhibition call (S. aureus RN4220)
CC(C)NC(=O)N1Cc2cc(C(=O)NC3Cc4ccccc4C3)nc(-c3cccc(-c4cccnc4)c3)c2[C@H]1CCO,active,inactive,inactive
C[C@@H]1CN([C@H](C)CO)C(=O)c2cc(NS(C)(=O)=O)ccc2O[C@H]1CN(C)Cc1ccc(C(=O)Nc2ccccc2N)cc1,inactive,inactive,inactive
C[C@@H]1COC(=O)N1,inactive,inactive,inactive
Cc1noc(C)c1NC(=O)N(C)C[C@@H]1Oc2ccc(NC(=O)CCN3CCOCC3)cc2C(=O)N([C@H](C)CO)C[C@@H]1C,inactive,inactive,inactive
CCCN(C)C[C@@H]1OCCCC[C@H](C)Oc2ccc(NC(=O)Nc3ccc(F)cc3)cc2C(=O)N([C@@H](C)CO)C[C@@H]1C,inactive,inactive,inactive
C[C@@H]1CCCCO[C@@H](CN(C)S(=O)(=O)c2cccs2)[C@H](C)CN([C@H](C)CO)C(=O)c2cc(NC(=O)Nc3cccc4ccccc34)ccc2O1,inactive,inactive,inactive
Cn1cnc(S(=O)(=O)N2C[C@@H](O)COC[C@@H]3O[C@@H](CC(=O)N4CCN(c5ccccc5)CC4)CC[C@H]32)c1,inactive,inactive,inactive
CC(C)NC(=O)Nc1ccc2c(c1)C(=O)N([C@@H](C)CO)C[C@@H](C)[C@H](CN(C)Cc1ccc3c(c1)OCO3)O2,inactive,inactive,inactive
C[C@@H]1CCCCO[C@H](CN(C)S(=O)(=O)c2cccs2)[C@@H](C)CN([C@@H](C)CO)C(=O)c2cc(NC(=O)Nc3ccc(C(F)(F)F)cc3)ccc2O1,active,active,inactive
